Reference: article PMC12040169 (PLOS Biology, 2025)
Some of the results follow.

tested on: T1, C. trachomatis L2/434/Bu expressing GFP (CTL2-GFP); design: species or system HeLa; C. trachomatis total inclusion area by high-content imaging, normalised to DMSO; conditions: total inclusion area; 28.5 h, 10 µM; inhibitor
T1 construct: L2/434/Bu GFP intracellular growth in HeLa cells
Summary of the method: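 Post-fluorescence-read fixation, DNA staining with Hoechst and high-content imaging; GFP inclusion area and number per well, and nuclei counts, used as proxies for bacterial growth and host viability.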

Structure (SMILES)	% of control remaining
COC(=O)c1cc(C)nc2sc(C)c(N)c12 [CBK115343]	92.7288
CC(C)(C)c1ccc(-n2cc(-c3ccc(Cl)cc3)nn2)cc1 [CBK113031]	78.9701
CC(C)(O)C#Cc1ccc(C(=O)NCCC(=O)O)s1 [CBK267704]	94.8353
CCCN1CCC(N2CCN(CCO)CC2)CC1 [CBK261920]	98.5788
CCCn1cc(NC(=O)C2(c3ccccc3)CCC2)ccc1=O [CBK306237]	105.967
COc1ccccc1NC(=O)c1sc2nc(N3CCOCC3)c3c(c2c1N)CCCC3 [CBK269247]	73.2833
COC(=O)CNC(=O)c1ccc(S(=O)(=O)N2CCOCC2)cc1 [CBK264873]	96.9733
O=C1NC2(CCSC2)C(=O)N1Cc1noc(-c2cccs2)n1 (stereo not shown) [CBK306225]	38.8692
Cc1ccc2c(c1)oc(=O)n2CCNC(=O)CC1c2ccccc2Oc2ccccc21 [CBK286194]	89.022
CN1CCN(c2ccc3ccn(S(=O)(=O)c4ccccc4Br)c3n2)CC1 [CBK200019C]	82.9935
NC1CC(c2cc(NCc3cn4ccccc4n3)ncn2)C1 (stereo not shown) [CBK306631]	89.4121
O=C(Cn1cnc2c(F)cc(Br)cc2c1=O)N1CCOC2CCCCC21 (stereo not shown) [CBK305229]	43.481
CC(C)C(=O)N1CC2(CCN(CCc3c[nH]c4ccccc34)CC2)c2ccccc21 [CBK126725]	92.6802
COc1ccc(C(NC(=O)c2ccc(C(C)N3CCOCC3)o2)c2ccccc2)cc1 (stereo not shown) [CBK285748]	71.8551
CN(C(=O)CSc1nc2ccccc2nc1Cc1ccc(Cl)cc1)C1CCCCC1 [CBK294411]	96.6413
CC1(C)CC(=O)C2=C(C1)Nc1nc(SCc3ccc([N+](=O)[O-])cc3)[nH]c(=O)c1C2c1cccnc1 (stereo not shown) [CBK266096]	77.8673
O=C1CCC(=O)N1CCOc1nccnc1OC1CCN(CCc2c[nH]c3ccccc23)CC1 [CBK084355]	91.7633
O=C(O)c1ccc(S(=O)(=O)c2ccc3c(c2)C(=O)N(NC(=O)c2ccc(O)cc2)C3=O)cc1 [CBK264229]	110.231
CCCNC(=O)Cn1nc(C)n2c(cc3ccsc32)c1=O [CBK284061]	86.5989
c1ccc2c(CCN3CCN(c4nccnc4OC4CCCCC4)CC3)c[nH]c2c1 [CBK082847T]	78.4188

Structure (SMILES)	% of control remaining
CCN1CCC2CN(CCCC(c3ccc(F)cc3)c3ccc(F)cc3)CCN2C1=O (stereo not shown) [CBK024996]	40.3825
CCCCSc1nc(N)cc(N2CCCN(C(=O)C3CCCO3)CC2)n1 (stereo not shown) [CBK307209]	96.9802
Cc1ccc2[nH]c(Cc3ccc(NC(=O)c4nc5ccccc5n(C)c4=O)cc3)nc2c1 [CBK285802]	91.7538
CNC(=O)c1sc2ccccc2c1C1CN(Cc2cn(C)c3ccc(F)cc23)CCO1 (stereo not shown) [CBK285868]	78.6733
CCn1nncc1CNC1CCc2[nH]c3ccc(C)cc3c2C1 (stereo not shown) [CBK304749]	52.8597
c1ccc(CNC2(Cc3cc(-c4ccccn4)on3)COC2)cc1 [CBK289643]	94.3626
Cc1cc(-n2c(C)cc(C(=O)CSc3n[nH]c(=O)n3CC3CCCO3)c2C)no1 (stereo not shown) [CBK295589]	103.144
Cc1cc(C)nc(NC(=O)C(C)Oc2ccc(Cl)cc2C)n1 (stereo not shown) [CBK268111]	97.483
CC(=O)Nc1ccc(/C(C)=N/Nc2nc(N3CCCC3)nc(N3CCCC3)n2)cc1 [CBK021877]	89.0763
CN1CCN(c2cccc(-c3ccsc3)n2)CC1 [CBK036916]	89.386
CCCCCc1nnc(Nc2nc(C)cc(C)n2)[nH]1 [CBK288155]	124.107
COc1cc2c(cc1OC)C(C)N(C(=O)CCC(=O)O)CC2 (stereo not shown) [CBK269873]	76.9819
O=C(CSc1nnc2[nH]c(=O)ccn12)NCc1ccccc1Cl [CBK287684]	89.5366
O=C(CSc1nnc(-c2cccs2)n1-c1ccccc1)Nc1ccnc2ccccc12 [CBK267487]	104.299
CCN(CCO)c1ccc(Nc2cc(-c3ccc(C#N)cc3)ncn2)cc1 [CBK037764]	83.8668
Cc1ccc(C2(CN3CCC(NC(=O)CO)CC3)CCCC2)cc1 [CBK282628]	106.663
COc1cc2c(cc1OC)C1c3ccccc3N(Cn3nnc4ccccc43)C(=O)N1CC2 (stereo not shown) [CBK286193]	83.0471
Cc1ccc(-n2c(C)cc(C(=O)CSc3n[nH]c(=O)n3C3CC3)c2C)cc1C [CBK296764]	69.4933
Cc1cccc(-c2nc(=S)c3c(n2CCCN(C)C)CCCC3)c1 [CBK268406]	87.7834
COc1ccccc1CN(C1CCNCC1)S(=O)(=O)c1c(Cl)cccc1Cl [CBK160807T]	82.1242
